# Measured values taken from PubChem BioAssay AID485364 (National Center for Advancing Translational Sciences (NCATS), 2010).
# Hit rate of the full screen: of about 360,000 compounds, about 11,000 (3.1%) were called active. The shares of active, inactive and inconclusive entries below differ from those in the screen. Calls follow the shape of the dose curve; as a rule, active = well fitted inhibition curve with a large enough effect; inconclusive = small, poorly fitted or top-dose-only effect; inactive = no such curve, though single readings can be large or run the other way. No potency is given beside an inconclusive call; the fits are too rough.
# Target: Schistosoma mansoni thioredoxin glutathione reductase (TGR) (UniProt Q962Y6)
# Assay: qHTS Assay for the Inhibitors of Schistosoma Mansoni Peroxiredoxins; also: nearly all actives have a fitted effect of over 60% in size
# Conditions: purified TGR, DTNB reduction, TNB absorbance 405 nm; activity change, negative = inhibition: at 114 µM (top of the series) unless noted
# Outline: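 TGR 20 nM + NADPH 100 uM (dispensed conc.), cpd preinc 15 min RT; start with NADPH (500 uM addition) then DTNB (15 mM addition). Kinetic TNB absorbance, 405 nm filter. Four-parameter Hill fit across titration.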
# % is scaled to controls: 0 for no effect and ±100 for the full control effect; potency is read from the fitted curve at half-maximal effect; tags tell the direction and shape of the fitted curve.
SMILES,Potency,"activity change, negative = inhibition"
CC(=O)N1CCC(=NNS(=O)(=O)c2cccc([N+](=O)[O-])c2)CC1,"inconclusive [inhibitor, partial curve]",–
COc1ccc(C2=NO[C@@H]3C(=O)N(c4c(C)cccc4C)C(=O)[C@H]23)cc1OC,"inconclusive [inhibitor, partial curve]",–
CCCOc1ccc(CNC(=O)C(CC)n2nc(C)c3sc4ccccc4c3c2=O)cc1 (stereo unspecified),–,inactive: -8.1%
O=C(NC(=S)NC1CCCCC1)c1ccc(Cl)cc1,–,inactive: 0%
Cn1cc(S(=O)(=O)N2CCCCCC2)cc1C(=O)N1CCN(c2cccc(Cl)c2)CC1,–,inactive: -0.495%
COC(=O)c1sc2ncn(-n3c(C)ccc3C)c(=O)c2c1C,"inconclusive [inhibitor, single point]",–
CC(C)C(NC(=O)OCc1ccccc1)C(=O)OCC(=O)NCc1ccco1 (stereo unspecified),active: 28.2 µM,–
CCN1C(=O)[C@@H]2[C@@H](c3ccc(-c4ccc(F)cc4)cc3)N3CCCC[C@@]3(C(=O)OC)[C@@H]2C1=O,"inconclusive [inhibitor, partial curve]",–
Cc1cccnc1Nc1nc(-c2ccc(O)cc2O)cs1,–,inactive: 3.29%
Cc1cccc(NC(=O)CSc2nc(-c3ccco3)nc3cc(=O)[nH]n23)c1,"inconclusive [inhibitor, partial curve]",–
O=C(Nc1nc2ccccc2n1CCN1CCCC1)c1ccc(Cl)cc1,"inconclusive [inhibitor, single point]",–
Cc1ccc2cc(C#N)c(N3CCCN(C(=S)NCCCN(C)C)CC3)nc2c1,"inconclusive [inhibitor, single point]",–
C=CCN1CCc2cccc3c2[C@H]1Cc1ccc(O)c(O)c1-3,active: 1.58 µM,–
O=C(Nc1ccccc1NC(=O)c1ccco1)c1ccco1,–,inactive: 2.72%
COc1ccc(C(=O)COC(=O)c2cccc(NC(=O)c3ccc(OC)c(OC)c3)c2)cc1,–,inactive: 1.19%
O=C(Cc1ccccc1)N1CCN(c2ccccc2F)CC1,"inconclusive [inhibitor, partial curve, poor fit]",–
Oc1cc(O)c2c(c1)O[C@H](c1ccc(O)c(O)c1)[C@H](O)C2,"inconclusive [inhibitor, full curve]",–
O=C(CC1C(=O)NCCN1Cc1ccc(F)c(F)c1)NCCn1cccn1 (stereo unspecified),active: 44.7 µM,–
CCN(CC)S(=O)(=O)c1ccc(C(=O)Nc2ccc3c(c2)OCCO3)cc1,"inconclusive [inhibitor, partial curve]",–
O=C(NCc1ccco1)c1cc(S(=O)(=O)N2CCOCC2)ccc1Cl,"inconclusive [inhibitor, partial curve]",–
Fc1cccc(NC(=S)NCc2cccnc2)c1,"inconclusive [inhibitor, partial curve]",–
N#Cc1c(NC(=O)c2cnccn2)sc2c1CCCC2,–,inactive: -4.48%
O=C1CCN(Cc2ccc(O)cc2)CCN1[C@H](CO)c1ccccc1,"inconclusive [inhibitor, partial curve]",–

SMILES,Potency,"activity change, negative = inhibition"
COc1cccc(N(CC(=O)N2CCN(C)CC2)S(=O)(=O)c2ccccc2)c1,"inconclusive [inhibitor, full curve]",–
O=C(O)Cc1ccc(NC(=S)Nc2cccc(Cl)c2Cl)cc1,"inconclusive [inhibitor, partial curve]",–
Cc1cc(C)c(CN2CCN(C(=O)Cn3ccc(NC(=O)OCc4ccccc4)nc3=O)CC2)c(C)c1,"inconclusive [inhibitor, partial curve]",–
Cc1ccc(S(=O)(=O)N2CCOCC2)cc1C(=O)OCC(=O)c1ccc(Br)cc1,–,inactive: -10.2%
COc1cccc(-c2nnc(SCC(=O)NCc3ccc4c(c3)OCO4)n2Cc2ccco2)c1,active: 44.7 µM,–
O=S(=O)(Cc1ccccc1)N1CCc2ccccc21,"inconclusive [inhibitor, partial curve]",–
CC(C)CNS(=O)(=O)c1cc(C(=O)OC2CCOC2=O)c(Cl)cc1Cl (stereo unspecified),–,inactive: 5.2%
N=c1c(S(=O)(=O)c2ccccc2)cc2c(=O)n3ccccc3nc2n1Cc1ccco1,"inconclusive [inhibitor, single point]",–
C/C(=N\NC(=O)c1cccc(F)c1)c1ccc(NC(=O)Cc2ccccc2)cc1,–,inactive: 3.36%
O=C(Cc1nnc(NC(=O)c2cccc([N+](=O)[O-])c2)s1)NCc1ccccc1,"inconclusive [inhibitor, single point]",–
CCOC(=O)C1(Cc2ccccc2C(F)(F)F)CCN(C(C)CCn2cccn2)CC1 (stereo unspecified),"inconclusive [inhibitor, partial curve, poor fit]",–
COc1ccc(N2CCN(CCCNC(=O)C(=O)c3c[nH]c4ccccc34)CC2)cc1,–,inactive: -0.842%
CCOC(=O)C1=C(C)N=c2s/c(=C/c3cccc([N+](=O)[O-])c3O)c(=O)n2C1c1ccc(OC)cc1OC (stereo unspecified),active: 56.2 µM,–
O=C(c1ccc(F)cc1Cl)N(Cc1ccco1)C1CCS(=O)(=O)C1 (stereo unspecified),"inconclusive [inhibitor, partial curve]",–
O=C(Cc1ccccn1)c1ccccc1,"inconclusive [inhibitor, partial curve]",–
COc1ccc(-c2cc(OC(=O)c3ccc(Cl)cc3)c3c(C)oc(C)c3c(=O)c2)cc1,active: 39.8 µM,–
COc1ccc(CN(C(=O)/C=C/c2ccco2)C2CCS(=O)(=O)C2)cc1 (stereo unspecified),active: 2 µM,–
CC(C)(C)NS(=O)(=O)c1ccc(NC(=S)NC(=O)C2CCC2)cc1,"inconclusive [inhibitor, partial curve]",–
NC(=O)c1ccc(C(F)(F)F)n(Cc2ccc(Cl)cc2)c1=O,–,inactive: 14.4%
O=C(CCl)c1cc2c3c(c1)CC(=O)N3CCC2,active: 1.58 µM,–
CCC1CCCCN1S(=O)(=O)c1ccc(C(=O)Nc2sc3c(c2C(=O)NC)CCC3)cc1 (stereo unspecified),"inconclusive [inhibitor, partial curve, poor fit]",–
CC(Cc1ccccc1Sc1ccccc1O)N(C)C (stereo unspecified),–,inactive: -24.1%
COc1ccccc1CNS(=O)(=O)c1ccc(Br)s1,"inconclusive [inhibitor, partial curve]",–
